The full ranking holds about 4,500 sequences; the median of “median log2 fold change of GCK-ALFA target abundance (FLAG IP / Myc IP barcode read proportion)” is about 0.078, and the lowest 2% start at about -0.6. Some of the results follow.
B1: GBRAP_26_5429 (protein)
chain: MEEIFKELEEKMEEAADKLLDPEKAAGLKAEISTEILEVEEKVEEENLSIEEIKELLEKMIERIVEAARELGVDEETLKKLREEFEKYAEEALKKLEKER
B2: GBRAP_117_2590 (protein)
chain: SALEKEIAEKIKETVEEFKKAYEKMKTLSPEEKKKLEEEMKEKIYKVLKEALEKLSLEKVYEFIEEATKDLNAEEYFLFESLLEEALAEIKEEEKKKEEE
B3: GBRAP_128_3370 (protein)
chain: VDEAALAEVAAMARAMAKADVAEARELARALVRHLGTLSPEEREAAVEILKKELPKLSAEKLDVLADVIRELRPTLDPETAALLAELEVEALNEREEKEE
B4: GBRAP_26_5421 (protein)
chain: LEEKFREMADEMDEAFDELLDPELAAAAKTEFYTLLEEAEEEIEKNKNDLEKQKAILEKMLKEFEKALKELGVSEENRAKLMKKLKEGMEKILEYLEKKL
B5: GBRAP_160_4123 (protein)
chain: KEKKRKTLLDSAKDVEETLKIIEDLSPEEAGTLAIVTLGQILLDNDELDDEFPEIEKLADEAIEKLRETAKTDPEKLKELSKELLEEIRELLLKKAEELK
B6: GBRAP_39_5660 (protein)
chain: DEKEEAELLKSYYEALAVKYQVEKGISDEELHEEGIKLLKEIAEEHPEIKEAVEELIELMKEGDDEFKEAAFGIALLAKEGTPIEEIKKRIEELIKLYKS
B7: GBRAP_74_6551 (protein)
chain: MEEKLKAAEKALEEGDYLTAAKILKEILEEGPDEETIKRIQKLIVRLAERLDELDRAAVDALADAVAALFTNVPDELLSDETFRAAARILARAVELEAAE
B8: GBRAP_128_3297 (protein)
chain: SAEALRARYRERLLALRELSPEELHAATLALVAEAAALGLEAVEILAEELEALLPEFSVEQLEAIADALREAAATADPETRAILADAENDALLEAEEKEE
B9: GBRAP_39_5682 (protein)
chain: EEEEELELEVSYLEAIAAKYLYDTGISFEEALAEAKKVLKEYAKKNPELKELIEELIKLADEKGEEAQLVLIGIAVLIKEGTPKEEIKENIEKAIKYFKS
B10: GBRAP_11_2864 (protein)
chain: MKEKLKEAAKLAKEAVKVLDELLKKGVDDEELRKKLEELLKELEELAKKYLDESEVKLVEIAVENFEKALKDPENAEKYIKNALAALRVFEGQLLLLIDE
B11: GBRAP_125_3153 (protein)
chain: SKEEAVEALALIARRLGFDEGLVEEIARLAEKHSIKNTLYAIALAEGNEELADLVLKLTEEEVEEVVKEAAKYLEENPNITPEELKKKLLELAKKALKEK
B12: GBRAP_160_4285 (protein)
chain: EEEKKKLIEEVNELFEEAKEEMKGQTRAERVTVVRVTGGEVAMALWENPIATEELVDEALKIMDDLAATIAANPDLTDAEIEALLNEAREKIKKAIEESS
B13: GBRAP_52_5917 (protein)
chain: MEEEIKKIAEKILEAAIAGKKEEMKKLIKEAVETLNTEELAELVKKLAELTIERGPEYYDVFAEIMDILEDEVEEAGKNVEEIDYAIAEGFGRLYKAEQA
B14: GBRAP_184_5327 (protein)
chain: KTLEVHIPNASLEEIIKEVEKAAKEAAAAGADLLISIDAEGYSDEELVELLEAIGEIAKKEGVKNVTVGLDKAVDEETADKLIEVADKYGIRLTLALKDE
B15: GBRAP_128_3245 (protein)
chain: SQEELLAKALELIDRIVEVDVEEAAKLTAELLELLKQLDAESREKVADYLEERLKELSAEKLEAVADTIRANRGKLDPETAALVAGVEIDALELAEEKKE
B16: GBRAP_43_5783 (protein)
chain: SEELVDGAIDFALLMLEEPEVPEEQKVKAAVAAIELAADEGYLDKEKIMALVDAAAASLSAEELKKLAERLKEIAEKYPEHKEVLEEARAKVEAAIKAKE
B17: GBRAP_80_6753 (protein)
chain: GEAALAAALAELEELDPELGAALRAVLERALAAGVPVATVTRLVEALVELAKLDLERARELGRRFIAELEAALAAGDLEAATAVLIDAESDALLEVEELE
B18: GBRAP_52_6265 (protein)
chain: MREELRAQVEEIFNLVKEGKLEEARELARKLVESLNEEELELFIKEFAEYAKTVKKEEIPYVEKATEIIAEEMERAGVPEELVSLFEAEAYGAIYEREQK
B19: GBRAP_160_4269 (protein)
chain: KKTAEELAADVAEDRDEILSLVDELSAEEIRTLAVTELGSHLMEAIDEGVITDAEEDELAAIVDALEADLAAAADASPEELRAIITRYYDAAIALLKKAA
B20: GBRAP_52_6251 (protein)
chain: MAEELRAKAKEIVELVKEGKLEEARKLAREIARTYNEEEIEAFIDEFAKLAEESRLEDIEAVWEAAEIIAEALEEEGWDEVLVDYALARTAAALVKVEEK
B21: GBRAP_166_4983 (protein)
chain: SNKEIVEELKKYIDELAEKAKEADEEEKLELVAEAAEKIAEAKKKGLSPEDLKELVKYMIEKFKKVGIPISTVEGALSILADLNEEEIDILIEAAEEVEK
B22: GBRAP_74_6564 (protein)
chain: SAAMIKEIKEVAKTKSLKEFSEFILKNIDKLDEEALLVALKELKAKLEAEKDTVTPEELEVVSEAAAALADKVFTSEASEEAVKAAAALIKAVVALEKKA
B23: GBRAP_128_3166 (protein)
chain: SDEEIVEKVRELVEKMIEASPEEARELAEEIVEIFLEADLETAEKIAEVIIELLPKLSEEHLEILIDVIREKLPLFTPEKQELAAEVMVEAGEEILELEE
B24: GBRAP_160_4292 (protein)
chain: SPELEKAKKLIEETFERTYALMEGQTAEERAVIVDVEYGALIYELSENPNVSDEALDKVDAIRDEVVATILANPDLTPEQLRALLEEARDRIIEVLEEDF
B25: GBRAP_172_5005 (protein)
chain: MVTLLELDLLGLSTEEAVARAVAALRAAHAATGGPIVVAVVTDTEETADAVEAALEAEAARLGADVRVVADAYRSEADRARVLAAARAEAIDLEYELEEA
B26: GBRAP_160_4002 (protein)
chain: SAEIEKLIKEIEELIAETKAEMEGLTPEERLTLVRGTVGEIIQLAEESPVVSDETLDKIAAIGDATVAAVKANADADLATWRAILDAYLAEVKALIEKDA
B27: GBRAP_160_4671 (protein)
chain: MEAIEKLLEEIREIMEEAVEFMEGESLEERIAVARVMTGEIILLLEESPLATDEVIEYADELGDELVEYIEENPDITPEELREKLEEFLEKLEEKLLEES
B28: GBRAP_184_5348 (protein)
chain: KTLDVLIEADTVDEAIEKLRKAAAEARAAGATLNVLIDVPINTVEEAEKLMDELARLAAEGIIAGTVGILNVSDDEEIIDVLVERADEAGIRLVLAINEE
B29: GBRAP_11_2669 (protein)
chain: KKEALEEALRLAREAEETARRLIEEGVDNEELRERLRRLLEELEELAEKHLDEAVKRDVRIARELFEEAEADPERALEYYERLAAALAVLAGNLELDLDE

biological target: GABARAP, O95166; assay: median log2 fold change of GCK-ALFA target abundance (FLAG IP / Myc IP barcode read proportion) (log2 ratio); each designed protein is fused to an ALFA-tag nanobody in HEK293 cells to bring the named protein to FLAG-tagged glucokinase (GCK); Myc marks an untargeted standard; higher = target protein stabilised (more abundant); details: target protein: 3xFLAG-MCP-GCK-ALFA reporter; HEK293 landing pad (RPLP)
Procedure, shortened: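 Sequencing of reverse-transcribed, amplified circular RNA barcodes from anti-FLAG and anti-Myc immunoprecipitates provided the readout for an ALFA-nanobody-fused binder library recombined into HEK293 landing-pad cells. Those cells were induced with 2 μg mL^−1 doxycycline, transfected with a plasmid expressing a FLAG-tagged target and a Myc-tagged standard, and lysed after 48 h. Target abundance is the per-binder median log2 ratio of FLAG to Myc barcode read proportions. Only barcodes at a proportion of ≥10^−7 in both replicates and binders with ≥3 barcodes per replicate were kept, with a 10^−6 pseudocount added before the two replicates were pooled.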

Chain of GABARAP, O95166 (O95166 whole entry, the tested form may be a part): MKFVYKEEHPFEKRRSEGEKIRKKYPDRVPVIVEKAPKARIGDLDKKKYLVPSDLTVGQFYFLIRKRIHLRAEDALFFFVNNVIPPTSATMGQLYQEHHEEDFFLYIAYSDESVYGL

Row | Binder | median log2 fold change
1 | B1 | 0.241
2 | B2 | 0.0424
3 | B3 | 0.37
4 | B4 | 0.347
5 | B5 | 0.128
6 | B6 | -0.0694
7 | B7 | -0.113
8 | B8 | 0.0146
9 | B9 | 0.0329
10 | B10 | 0.0563
11 | B11 | -0.369
12 | B12 | -0.0523
13 | B13 | 0.144
14 | B14 | -0.113
15 | B15 | 0.182
16 | B16 | 0.364
17 | B17 | 0.175
18 | B18 | 0.0899
19 | B19 | 0.199
20 | B20 | -0.554
21 | B21 | -0.191
22 | B22 | -0.329
23 | B23 | 0.118
24 | B24 | -0.00871
25 | B25 | 0.169
26 | B26 | -0.103
27 | B27 | -0.453
28 | B28 | -0.247
29 | B29 | 0.252
